# Some of the results follow.
# B1: PX9961C-bth-497-22-497 (Bacteroides thetaiotaomicron) (protein)
# chain: DWLDLNTTSSVETGQAIVTLDDAQIALNGIYRLASGHSYYGDNYWYYGDCRAADVQARITKGDGKRVSPYYEYNVLASDNLNIVLPWNTVYKVIRQTNNLIQKIESGSIQSSDTKELNRIKSEALVMRGLSLFNLTRLFGMPYTNDKGASLGVPIETSPSDPTHKPSRSTVAQCYEQVVSDMSNALSGLRQETSNGYINYWAAQALLSRVYLNMGEYQKAYDAATDVIKNNGGRYQLYSYEEYPNVWGQDFQSESLFELYITLSEPSGGTGGEGAPMVYANEATVDWNNLILSEDFLNLLNEDPKDVRHCLTKESVIENNTGLPAAAMHEKVYLAKFPGKTGDDPKTNNICIIRLSEVYLNAAEAGLKKGTDIEEAQGYLNDIISRRTTDTSQQVSTETFTLDRILKERRKELVGEGEVFYDYLRNGLAIERKGSWHLETLKASNAQKIEATDLRIALPIPQSEIDANPNIQQNPR
# Experiments:
# Assay in all cases: glycan array binding signal (z-score within array); higher = stronger binding
# Conditions in all cases: glycan notation: IUPAC condensed, linker removed
# [1] = target: Gal(b1-3)GalNAc(b1-3)Gal(a1-4)Gal(b1-4)Glc
# How it was run: (§1)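 Negative Z-scores can be read as non-binding. The Z-score is calculated within each array and then averaged across arrays of one protein sequence at different concentrations or buffers and across linkers. Arrays, 3228 in all, were curated from the Consortium for Functional Glycomics database and kept only where the protein sequence was available.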
# [2] = target: Gal(b1-3)GalNAc(b1-4)Gal(b1-4)Glc
# How it was run: as §1
# [3] = target: Gal(b1-3)GalNAc(b1-4)[Neu5Ac(a2-3)]Gal(b1-4)Glc
# How it was run: as §1
# Gal(b1-3)GlcNAc = target: Gal(b1-3)GlcNAc
# How it was run: as §1
# [4] = target: Gal(b1-3)GlcNAc(a1-3)Gal(b1-4)GlcNAc
# How it was run: as §1
# [5] = target: Gal(b1-3)GlcNAc(a1-6)Gal(b1-4)GlcNAc
# How it was run: as §1
# Gal(b1-3)GlcNAc(b1-2)Man = target: Gal(b1-3)GlcNAc(b1-2)Man
# How it was run: as §1
# [6] = target: Gal(b1-3)GlcNAc(b1-2)Man(a1-3)[Gal(b1-3)GlcNAc(b1-2)Man(a1-6)]Man(b1-4)GlcNAc(b1-4)GlcNAc
# How it was run: as §1
# [7] = target: Gal(b1-3)GlcNAc(b1-2)Man(a1-3)[Gal(b1-3)GlcNAc(b1-2)Man(a1-6)]Man(b1-4)GlcNAc(b1-4)[Fuc(a1-6)]GlcNAc
# How it was run: as §1
# [8] = target: Gal(b1-3)GlcNAc(b1-2)Man(a1-3)[GlcNAc(b1-4)][Gal(b1-3)GlcNAc(b1-2)Man(a1-6)]Man(b1-4)GlcNAc(b1-4)GlcNAc
# How it was run: as §1
# [9] = target: Gal(b1-3)GlcNAc(b1-2)[Gal(b1-3)GlcNAc(b1-6)]Man(a1-6)[Gal(b1-3)GlcNAc(b1-2)Man(a1-3)]Man(b1-4)GlcNAc(b1-4)GlcNAc
# How it was run: as §1
# [10] = target: Gal(b1-3)GlcNAc(b1-3)Gal(b1-3)GlcNAc
# How it was run: as §1
# [11] = target: Gal(b1-3)GlcNAc(b1-3)Gal(b1-4)Glc
# How it was run: as §1
# [12] = target: Gal(b1-3)GlcNAc(b1-3)Gal(b1-4)GlcNAc
# How it was run: as §1
# [13] = target: Gal(b1-3)GlcNAc(b1-3)Gal(b1-4)GlcNAc(b1-2)Man(a1-3)[Gal(b1-3)GlcNAc(b1-3)Gal(b1-4)GlcNAc(b1-2)Man(a1-6)]Man(b1-4)GlcNAc(b1-4)GlcNAc
# How it was run: as §1
# [14] = target: Gal(b1-3)GlcNAc(b1-3)Gal(b1-4)GlcNAc(b1-2)[Gal(b1-3)GlcNAc(b1-3)Gal(b1-4)GlcNAc(b1-6)]Man(a1-6)[Gal(b1-3)GlcNAc(b1-3)Gal(b1-4)GlcNAc(b1-2)Man(a1-3)]Man(b1-4)GlcNAc(b1-4)[Fuc(a1-6)]GlcNAc
# How it was run: as §1
# [15] = target: Gal(b1-3)GlcNAc(b1-3)Gal(b1-4)GlcNAc(b1-3)Gal(b1-4)GlcNAc(b1-2)[Gal(b1-3)GlcNAc(b1-3)Gal(b1-4)GlcNAc(b1-3)Gal(b1-4)GlcNAc(b1-6)]Man(a1-6)[Gal(b1-3)GlcNAc(b1-3)Gal(b1-4)GlcNAc(b1-3)Gal(b1-4)GlcNAc(b1-2)Man(a1-3)]Man(b1-4)GlcNAc(b1-4)[Fuc(a1-6)]GlcNAc
# How it was run: as §1
# [16] = target: Gal(b1-3)GlcNAc(b1-3)Gal(b1-4)GlcNAc(b1-6)[Gal(b1-3)GlcNAc(b1-3)]Gal(b1-4)Glc
# How it was run: as §1
# [17] = target: Gal(b1-3)GlcNAc(b1-3)Gal(b1-4)[Fuc(a1-3)]GlcNAc
# How it was run: as §1
# [18] = target: Gal(b1-3)GlcNAc(b1-3)Gal(b1-4)[Fuc(a1-3)]GlcNAc(b1-6)[Gal(b1-3)GlcNAc(b1-3)]Gal(b1-4)Glc
# How it was run: as §1
# [19] = target: Gal(b1-3)GlcNAc(b1-3)GalNAc
# How it was run: as §1
# [20] = target: Gal(b1-3)GlcNAc(b1-6)Gal(b1-4)GlcNAc
# How it was run: as §1
# [21] = target: Gal(b1-3)GlcNAc(b1-6)GalNAc
# How it was run: as §1
# [22] = target: Gal(b1-3)GlcNAc(b1-6)[Gal(b1-3)]GalNAc
# How it was run: as §1
# Gal(b1-3)GlcNAc6S = target: Gal(b1-3)GlcNAc6S
# How it was run: as §1
# [23] = target: Gal(b1-3)[Fuc(a1-4)]GlcNAc
# How it was run: as §1
# [24] = target: Gal(b1-3)[Fuc(a1-4)]GlcNAc(b1-2)Man
# How it was run: as §1
# [25] = target: Gal(b1-3)[Fuc(a1-4)]GlcNAc(b1-2)Man(a1-3)[Gal(b1-3)[Fuc(a1-4)]GlcNAc(b1-2)Man(a1-6)]Man(b1-4)GlcNAc(b1-4)[Fuc(a1-6)]GlcNAc
# How it was run: as §1
# [26] = target: Gal(b1-3)[Fuc(a1-4)]GlcNAc(b1-3)Gal(b1-3)[Fuc(a1-4)]GlcNAc
# How it was run: as §1
# [27] = target: Gal(b1-3)[Fuc(a1-4)]GlcNAc(b1-3)Gal(b1-4)[Fuc(a1-3)]GlcNAc
# How it was run: as §1
# [28] = target: Gal(b1-3)[Fuc(a1-4)]GlcNAc(b1-6)GalNAc
# How it was run: as §1
# [29] = target: Gal(b1-3)[GlcNAc(b1-6)]GalNAc
# How it was run: as §1
# [30] = target: Gal(b1-3)[Neu5Ac(a2-6)]GalNAc
# How it was run: as §1
# [31] = target: Gal(b1-3)[Neu5Ac(a2-6)]GlcNAc(b1-4)Gal(b1-4)Glc
# How it was run: as §1
# [32] = target: Gal(b1-3)[Neu5Ac(b2-6)]GalNAc
# How it was run: as §1
# Gal(b1-4)Gal = target: Gal(b1-4)Gal
# How it was run: as §1
# [33] = target: Gal(b1-4)GalNAc(a1-3)[Fuc(a1-2)]Gal(b1-4)GlcNAc
# How it was run: as §1
# [34] = target: Gal(b1-4)GalNAc(b1-3)[Fuc(a1-2)]Gal(b1-4)GlcNAc
# How it was run: as §1
binder,measurement,setting,value
B1,glycan array binding signal (z-score),[1],-0.445
same,glycan array binding signal (z-score),[2],1.34
same,glycan array binding signal (z-score),[3],-0.411
same,glycan array binding signal (z-score),Gal(b1-3)GlcNAc,-0.317
same,glycan array binding signal (z-score),[4],-0.184
same,glycan array binding signal (z-score),[5],-0.401
same,glycan array binding signal (z-score),Gal(b1-3)GlcNAc(b1-2)Man,-0.101
same,glycan array binding signal (z-score),[6],0.717
same,glycan array binding signal (z-score),[7],-0.066
same,glycan array binding signal (z-score),[8],0.492
same,glycan array binding signal (z-score),[9],14.1
same,glycan array binding signal (z-score),[10],-0.306
same,glycan array binding signal (z-score),[11],-0.383
same,glycan array binding signal (z-score),[12],-0.282
same,glycan array binding signal (z-score),[13],-0.183
same,glycan array binding signal (z-score),[14],0.491
same,glycan array binding signal (z-score),[15],0.461
same,glycan array binding signal (z-score),[16],-0.329
same,glycan array binding signal (z-score),[17],0.021
same,glycan array binding signal (z-score),[18],-0.391
same,glycan array binding signal (z-score),[19],-0.805
same,glycan array binding signal (z-score),[20],-0.218
same,glycan array binding signal (z-score),[21],-0.427
same,glycan array binding signal (z-score),[22],0.026
same,glycan array binding signal (z-score),Gal(b1-3)GlcNAc6S,-0.422
same,glycan array binding signal (z-score),[23],-0.223
same,glycan array binding signal (z-score),[24],-0.293
same,glycan array binding signal (z-score),[25],0.202
same,glycan array binding signal (z-score),[26],-0.45
same,glycan array binding signal (z-score),[27],0.729
same,glycan array binding signal (z-score),[28],-0.101
same,glycan array binding signal (z-score),[29],-0.015
same,glycan array binding signal (z-score),[30],-0.416
same,glycan array binding signal (z-score),[31],-0.261
same,glycan array binding signal (z-score),[32],-0.256
same,glycan array binding signal (z-score),Gal(b1-4)Gal,-0.29
same,glycan array binding signal (z-score),[33],-0.203
same,glycan array binding signal (z-score),[34],-0.702
